Our source for the AlphaScreen luminescence signal values is the supplement of paper PMC12423691.

The list shows a part of the results. Binding of human transcription factors and regulators to the viral nucleoprotein by AlphaScreen, crude cell-free proteins, amounts not normalised, one pass. Fold of the Venus control; higher = more signal. No active / inactive call. Single-pass screen; sequences are the whole Swiss-Prot entries looked up by name.

The labels stand for the following.
B1: DEAF1, O75398 (protein)
chain: MEDSDSAAKQLGLAEAAAVAAAAAVAAAAAAAAGGEAEEPVLSRDEDSEEDADSEAERETPRVTAVAVMAAEPGHMDMGAEALPGPDEAAAAAAFAEVTTVTVANVGAAADNVFTTSVANAASISGHVLSGRTALQIGDSLNTEKATLIVVHTDGSIVETTGLKGPAAPLTPGPQSPPTPLAPGQEKGGTKYNWDPSVYDSELPVRCRNISGTLYKNRLGSGGRGRCIKQGENWYSPTEFEAMAGRASSKDWKRSIRYAGRPLQCLIQDGILNPHAASCTCAACCDDMTLSGPVRLFVPYKRRKKENELPTTPVKKDSPKNITLLPATAATTFTVTPSGQITTSGALTFDRASTVEATAVISESPAQGDVFAGATVQEASVQPPCRASHPEPHYPGYQDSCQIAPFPEAALPTSHPKIVLTSLPALAVPPPTPTKAAPPALVNGLELSEPRSWLYLEEMVNSLLNTAQQLKTLFEQAKHASTYREAATNQAKIHADAERKEQSCVNCGREAMSECTGCHKVNYCSTFCQRKDWKDHQHICGQSAAVTVQADEVHVAESVMEKVTV
B2: ZNF81, P51508 (protein)
chain: MPANEDAPQPGEHGSACEVSVSFEDVTVDFSREEWQQLDSTQRRLYQDVMLENYSHLLSVGFEVPKPEVIFKLEQGEGPWTLEGEAPHQSCSDGKFGIKPSQRRISGKSTFHSEMEGEDTRDDSLYSILEELWQDAEQIKRCQEKHNKLLSRTTFLNKKILNTEWDYEYKDFGKFVHPSPNLILSQKRPHKRDSFGKSFKHNLDLHIHNKSNAAKNLDKTIGHGQVFTQNSSYSHHENTHTGVKFCERNQCGKVLSLKHSLSQNVKFPIGEKANTCTEFGKIFTQRSHFFAPQKIHTVEKPHELSKCVNVFTQKPLLSIYLRVHRDEKLYICTKCGKAFIQNSELIMHEKTHTREKPYKCNECGKSFFQVSSLLRHQTTHTGEKLFECSECGKGFSLNSALNIHQKIHTGERHHKCSECGKAFTQKSTLRMHQRIHTGERSYICTQCGQAFIQKAHLIAHQRIHTGEKPYECSDCGKSFPSKSQLQMHKRIHTGEKPYICTECGKAFTNRSNLNTHQKSHTGEKSYICAECGKAFTDRSNFNKHQTIHTGEKPYVCADCGRAFIQKSELITHQRIHTTEKPYKCPDCEKSFSKKPHLKVHQRIHTGEKPYICAECGKAFTDRSNFNKHQTIHTGDKPYKCSDCGKGFTQKSVLSMHRNIHT
B3: CREB3L3, Q68CJ9 (protein)
chain: MNTDLAAGKMASAACSMDPIDSFELLDLLFDRQDGILRHVELGEGWGHVKDQQVLPNPDSDDFLSSILGSGDSLPSSPLWSPEGSDSGISEDLPSDPQDTPPRSGPATSPAGCHPAQPGKGPCLSYHPGNSCSTTTPGPVIQVPEASVTIDLEMWSPGGRICAEKPADPVDLSPRCNLTVKDLLLSGSSGDLQQHHLGASYLLRPGAGHCQELVLTEDEKKLLAKEGITLPTQLPLTKYEERVLKKIRRKIRNKQSAQESRKKKKEYIDGLETRMSACTAQNQELQRKVLHLEKQNLSLLEQLKKLQAIVVQSTSKSAQTGTCVAVLLLSFALIILPSISPFGPNKTESPGDFAPVRVFSRTLHNDAASRVAADAVPGSEAPGPRPEADTTREESPGSPGADWGFQDTANLTNSTEELDNATLVLRNATEGLGQVALLDWVAPGPSTGSGRAGLEAAGDEL
B4: ZNF501, Q96CX3 (protein)
chain: MNSSQISLRMKHGRVNMQKKPSKCSECGKFFTQRSSLTQHQRIHRGEKPYVCSECGSCFRKQSNLTQHLRIHTGEKPYKCNECEKAFQTKAILVQHLRIHTGEKPYKCNECGKAFCQSPSLIKHQRIHTGEKPYKCTECGKAFSQSICLTRHQRSHSGDKPFKCNECGKAFNQSACLMQHQRIHSGEKPYTCTECGKAFTQNSSLVEHERTHTGEKLYKCSECEKTFRKQAHLSEHYRIHTGEKPYECVGCGKSFRHSSALLRHQRLHAGE
B5: GTF2H2, Q13888 (protein)
chain: MDEEPERTKRWEGGYERTWEILKEDESGSLKATIEDILFKAKRKRVFEHHGQVRLGMMRHLYVVVDGSRTMEDQDLKPNRLTCTLKLLEYFVEEYFDQNPISQIGIIVTKSKRAEKLTELSGNPRKHITSLKKAVDMTCHGEPSLYNSLSIAMQTLKHMPGHTSREVLIIFSSLTTCDPSNIYDLIKTLKAAKIRVSVIGLSAEVRVCTVLARETGGTYHVILDESHYKELLTHHVSPPPASSSSECSLIRMGFPQHTIASLSDQDAKPSFSMAHLDGNTEPGLTLGGYFCPQCRAKYCELPVECKICGLTLVSAPHLARSYHHLFPLDAFQEIPLEEYNGERFCYGCQGELKDQHVYVCAVCQNVFCVDCDVFVHDSLHCCPGCIHKIPAPSGV
B6: RNF4, P78317 (protein)
chain: MSTRKRRGGAINSRQAQKRTREATSTPEISLEAEPIELVETAGDEIVDLTCESLEPVVVDLTHNDSVVIVDERRRPRRNARRLPQDHADSCVVSSDDEELSRDRDVYVTTHTPRNARDEGATGLRPSGTVSCPICMDGYSEIVQNGRLIVSTECGHVFCSQCLRDSLKNANTCPTCRKKINHKRYHPIYI
B7: CSRNP2, Q9H175 (protein)
chain: MDAFTGSGLKRKFDDVDVGSSVSNSDDEISSSDSADSCDSLNPPTTASFTPTSILKRQKQLRRKNVRFDQVTVYYFARRQGFTSVPSQGGSSLGMAQRHNSVRSYTLCEFAQEQEVNHREILREHLKEEKLHAKKMKLTKNGTVESVEADGLTLDDVSDEDIDVENVEVDDYFFLQPLPTKRRRALLRASGVHRIDAEEKQELRAIRLSREECGCDCRLYCDPEACACSQAGIKCQVDRMSFPCGCSRDGCGNMAGRIEFNPIRVRTHYLHTIMKLELESKRQVSRPAAPDEEPSPTASCSLTGAQGSETQDFQEFIAENETAVMHLQSAEELERLKAEEDSSGSSASLDSSIESLGVCILEEPLAVPEELCPGLTAPILIQAQLPPGSSVLCFTENSDHPTASTVNSPSYLNSGPLVYYQVEQRPVLGVKGEPGTEEGSASFPKEKDLNVFSLPVTSLVACSSTDPAALCKSEVGKTPTLEALLPEDCNPEEPENEDFHPSWSPSSLPFRTDNEEGCGMVKTSQQNEDRPPEDSSLELPLAV
B8: EDF1, O60869 (protein)
chain: MAESDWDTVTVLRKKGPTAAQAKSKQAILAAQRRGEDVETSKKWAAGQNKQHSITKNTAKLDRETEELHHDRVTLEVGKVIQQGRQSKGLTQKDLATKINEKPQVIADYESGRAIPNNQVLGKIERAIGLKLRGKDIGKPIEKGPRAK
B9: TAF6L, Q9Y6J9 (protein)
chain: MSEREERRFVEIPRESVRLMAESTGLELSDEVAALLAEDVCYRLREATQNSSQFMKHTKRRKLTVEDFNRALRWSSVEAVCGYGSQEALPMRPAREGELYFPEDREVNLVELALATNIPKGCAETAVRVHVSYLDGKGNLAPQGSVPSAVSSLTDDLLKYYHQVTRAVLGDDPQLMKVALQDLQTNSKIGALLPYFVYVVSGVKSVSHDLEQLHRLLQVARSLFRNPHLCLGPYVRCLVGSVLYCVLEPLAASINPLNDHWTLRDGAALLLSHIFWTHGDLVSGLYQHILLSLQKILADPVRPLCCHYGAVVGLHALGWKAVERVLYPHLSTYWTNLQAVLDDYSVSNAQVKADGHKVYGAILVAVERLLKMKAQAAEPNRGGPGGRGCRRLDDLPWDSLLFQESSSGGGAEPSFGSGLPLPPGGAGPEDPSLSVTLADIYRELYAFFGDSLATRFGTGQPAPTAPRPPGDKKEPAAAPDSVRKMPQLTASAIVSPHGDESPRGSGGGGPASASGPAASESRPLPRVHRARGAPRQQGPGTGTRDVFQKSRFAPRGAPHFRFIIAGRQAGRRCRGRLFQTAFPAPYGPSPASRYVQKLPMIGRTSRPARRWALSDYSLYLPL
B10: TCF20, Q9UGU0 (protein)
chain: MQSFREQSSYHGNQQSYPQEVHGSSRLEEFSPRQAQMFQNFGGTGGSSGSSGSGSGGGRRGAAAAAAAMASETSGHQGYQGFRKEAGDFYYMAGNKDPVTTGTPQPPQRRPSGPVQSYGPPQGSSFGNQYGSEGHVGQFQAQHSGLGGVSHYQQDYTGPFSPGSAQYQQQASSQQQQQQVQQLRQQLYQSHQPLPQATGQPASSSSHLQPMQRPSTLPSSAAGYQLRVGQFGQHYQSSASSSSSSSFPSPQRFSQSGQSYDGSYNVNAGSQYEGHNVGSNAQAYGTQSNYSYQPQSMKNFEQAKIPQGTQQGQQQQQPQQQQHPSQHVMQYTNAATKLPLQSQVGQYNQPEVPVRSPMQFHQNFSPISNPSPAASVVQSPSCSSTPSPLMQTGENLQCGQGSVPMGSRNRILQLMPQLSPTPSMMPSPNSHAAGFKGFGLEGVPEKRLTDPGLSSLSALSTQVANLPNTVQHMLLSDALTPQKKTSKRPSSSKKADSCTNSEGSSQPEEQLKSPMAESLDGGCSSSSEDQGERVRQLSGQSTSSDTTYKGGASEKAGSSPAQGAQNEPPRLNASPAAREEATSPGAKDMPLSSDGNPKVNEKTVGVIVSREAMTGRVEKPGGQDKGSQEDDPAATQRPPSNGGAKETSHASLPQPEPPGGGGSKGNKNGDNNSNHNGEGNGQSGHSAAGPGFTSRTEPSKSPGSLRYSYKDSFGSAVPRNVSGFPQYPTGQEKGDFTGHGERKGRNEKFPSLLQEVLQGYHHHPDRRYSRSTQEHQGMAGSLEGTTRPNVLVSQTNELASRGLLNKSIGSLLENPHWGPWERKSSSTAPEMKQINLTDYPIPRKFEIEPQSSAHEPGGSLSERRSVICDISPLRQIVRDPGAHSLGHMSADTRIGRNDRLNPTLSQSVILPGGLVSMETKLKSQSGQIKEEDFEQSKSQASFNNKKSGDHCHPPSIKHESYRGNASPGAATHDSLSDYGPQDSRPTPMRRVPGRVGGREGMRGRSPSQYHDFAEKLKMSPGRSRGPGGDPHHMNPHMTFSERANRSSLHTPFSPNSETLASAYHANTRAHAYGDPNAGLNSQLHYKRQMYQQQPEEYKDWSSGSAQGVIAAAQHRQEGPRKSPRQQQFLDRVRSPLKNDKDGMMYGPPVGTYHDPSAQEAGRCLMSSDGLPNKGMELKHGSQKLQESCWDLSRQTSPAKSSGPPGMSSQKRYGPPHETDGHGLAEATQSSKPGSVMLRLPGQEDHSSQNPLIMRRRVRSFISPIPSKRQSQDVKNSSTEDKGRLLHSSKEGADKAFNSYAHLSHSQDIKSIPKRDSSKDLPSPDSRNCPAVTLTSPAKTKILPPRKGRGLKLEAIVQKITSPNIRRSASSNSAEAGGDTVTLDDILSLKSGPPEGGSVAVQDADIEKRKGEVASDLVSPANQELHVEKPLPRSSEEWRGSVDDKVKTETHAETVTAGKEPPGAMTSTTSQKPGSNQGRPDGSLGGTAPLIFPDSKNVPPVGILAPEANPKAEEKENDTVTISPKQEGFPPKGYFPSGKKKGRPIGSVNKQKKQQQPPPPPPQPPQIPEGSADGEPKPKKQRQRRERRKPGAQPRKRKTKQAVPIVEPQEPEIKLKYATQPLDKTDAKNKSFYPYIHVVNKCELGAVCTIINAEEEEQTKLVRGRKGQRSLTPPPSSTESKALPASSFMLQGPVVTESSVMGHLVCCLCGKWASYRNMGDLFGPFYPQDYAATLPKNPPPKRATEMQSKVKVRHKSASNGSKTDTEEEEEQQQQQKEQRSLAAHPRFKRRHRSEDCGGGPRSLSRGLPCKKAATEGSSEKTVLDSKPSVPTTSEGGPELELQIPELPLDSNEFWVHEGCILWANGIYLVCGRLYGLQEALEIAREMKCSHCQEAGATLGCYNKGCSFRYHYPCAIDADCLLHEENFSVRCPKHKPPLPCPLPPLQNKTAKGSLSTEQSERG

The test deals with nucleoprotein N of Crimean-Congo hemorrhagic fever virus. Kind of test: AlphaScreen luminescence signal relative to Venus negative control (fold); higher = stronger binding to CCHFV N. As to the method:
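AlphaScreen binding of cell-free made, FLAG-GST-tagged human transcription factors and regulators (crude translation products) to biotinylated N protein; signal as fold of the FLAG-GST-Venus control. One pass.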
Background: Alpha assays give light when donor and acceptor beads are brought close together.
The molecule B1 had an AlphaScreen luminescence signal of 2.74.

Regarding B2, the AlphaScreen luminescence signal came to 2.51.

B3 came in with an AlphaScreen luminescence signal of 1.86.

In turn, B4 came in with an AlphaScreen luminescence signal of 2.23.

For the molecule B5, the AlphaScreen luminescence signal turned out to be 2.42.

For the molecule B6, the AlphaScreen luminescence signal was 2.

B7 showed an AlphaScreen luminescence signal of 1.63.

With B8, the AlphaScreen luminescence signal came out at 1.26.

The molecule B9 showed an AlphaScreen luminescence signal of 1.77.

The molecule B10 registered an AlphaScreen luminescence signal of 1.67.
